Laboratory results: publication PMC5233801
These are yes or no findings as the source states them, for the method shown. Some results given as binding are weak or reduced against the parent protein; the word gives no strength. Sequences can lack the tags named with a protein. Each block holds one binder with its values, some of them ahead of it.

Experiments:
[1] = biological target: T1, SQUAMOSA PROMOTER BINDING PROTEIN-LIKE9 (SPL9) fused to GAL4 DNA-binding domain (Arabidopsis thaliana) (UniProt Q700W2); experiment: two-hybrid; yeast AH109; SPLs fused to GAL4 DNA-binding domain (pGBKT7), partners fused to GAL4 activation domain (pGADT7); SD-Leu-Trp-His or SD-Ade-Leu-Trp-His plates with 10 mM (SPL2, SPL3) or 15 mM (SPL9) 3-amino-1,2,4-triazole, 3-4 days at 30 °C
T1 sequence: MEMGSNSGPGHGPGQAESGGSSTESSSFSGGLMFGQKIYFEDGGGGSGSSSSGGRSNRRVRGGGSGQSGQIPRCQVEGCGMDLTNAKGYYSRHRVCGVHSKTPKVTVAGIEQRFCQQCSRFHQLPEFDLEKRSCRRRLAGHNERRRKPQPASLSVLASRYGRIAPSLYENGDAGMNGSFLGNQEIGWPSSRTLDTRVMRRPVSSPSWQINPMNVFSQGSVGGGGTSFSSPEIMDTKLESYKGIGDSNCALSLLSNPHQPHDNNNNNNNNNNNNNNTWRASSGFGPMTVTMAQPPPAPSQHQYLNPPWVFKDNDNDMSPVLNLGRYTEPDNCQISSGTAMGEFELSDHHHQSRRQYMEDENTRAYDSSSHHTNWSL

[2] = biological target: T2, SPL2 fused to GAL4 DNA-binding domain (Arabidopsis thaliana) (UniProt Q9S840); experiment: as above
T2 sequence: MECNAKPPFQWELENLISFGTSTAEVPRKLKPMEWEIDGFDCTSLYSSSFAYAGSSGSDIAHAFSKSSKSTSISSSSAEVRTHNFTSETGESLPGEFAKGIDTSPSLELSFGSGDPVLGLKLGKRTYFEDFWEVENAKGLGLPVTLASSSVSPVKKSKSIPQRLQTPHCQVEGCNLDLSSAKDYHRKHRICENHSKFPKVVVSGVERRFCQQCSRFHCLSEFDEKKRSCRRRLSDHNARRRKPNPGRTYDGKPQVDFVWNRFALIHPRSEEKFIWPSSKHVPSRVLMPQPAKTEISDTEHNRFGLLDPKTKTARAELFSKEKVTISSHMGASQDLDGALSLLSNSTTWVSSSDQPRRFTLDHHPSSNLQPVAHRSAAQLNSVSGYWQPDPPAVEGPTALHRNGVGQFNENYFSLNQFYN

[3] = biological target: T3, SPL3 fused to GAL4 DNA-binding domain (Arabidopsis thaliana) (UniProt P93015); experiment: as above
T3 sequence: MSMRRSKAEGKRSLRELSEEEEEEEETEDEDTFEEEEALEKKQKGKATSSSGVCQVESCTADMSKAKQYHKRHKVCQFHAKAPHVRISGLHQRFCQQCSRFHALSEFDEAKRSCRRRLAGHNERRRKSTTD

[4] = biological target: T4, JAZ3 in the JAZ3-SPL9/pBridge construct (Arabidopsis thaliana) (UniProt Q9LVI4); experiment: yeast three-hybrid; yeast AH109 with JAZ3-SPL9/pBridge and COI1/pGADT7; liquid SD-Leu-Trp-His with 40 μM coronatine and different concentrations of methionine (SPL9 level falls as Met rises)
T4 sequence: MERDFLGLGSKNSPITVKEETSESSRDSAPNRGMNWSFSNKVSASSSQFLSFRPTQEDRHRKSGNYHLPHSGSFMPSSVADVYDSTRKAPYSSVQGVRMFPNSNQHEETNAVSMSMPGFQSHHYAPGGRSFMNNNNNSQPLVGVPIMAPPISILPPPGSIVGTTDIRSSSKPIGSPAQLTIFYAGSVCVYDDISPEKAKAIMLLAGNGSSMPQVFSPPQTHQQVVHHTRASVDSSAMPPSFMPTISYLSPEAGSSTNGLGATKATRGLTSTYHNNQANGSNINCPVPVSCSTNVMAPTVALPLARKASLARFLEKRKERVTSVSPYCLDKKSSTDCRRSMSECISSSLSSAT

B1: JAZ4 in pGADT7 (protein, UniProt Q58G47 1-310)
chain: MERDFLGLGSKLSPITVKEETNEDSAPSRGMMDWSFSSKVGSGPQFLSFGTSQQETRVNTVNDHLLSSAAMDQNQRTYFSSLQEDRVFPGSSQQDQTTITVSMSEPNYINSFINHQHLGGSPIMAPPVSVFPAPTTIRSSSKPLPPQLTIFYAGSVLVYQDIAPEKAQAIMLLAGNGPHAKPVSQPKPQKLVHHSLPTTDPPTMPPSFLPSISYIVSETRSSGSNGVTGLGPTKTKASLASTRNNQTAAFSMAPTVGLPQTRKASLARFLEKRKERVINVSPYYVDNKSSIDCRTLMSECVSCPPAHHLH
- binding [1]: binds
- binding [2]: binds
- binding [3]: no binding

B3: JAZ7 in pGADT7 (protein, UniProt O64687 1-148)
chain: MIIIIKNCDKPLLNFKEMEMQTKCDLELRLLTSSYDSDFHSSLDESSSSEISQPKQESQILTIFYNGHMCVSSDLTHLEANAILSLASRDVEEKSLSLRSSDGSDPPTIPNNSTRFHYQKASMKRSLHSFLQKRSLRIQATSPYHRYR
- binding [3]: no binding

B4: SPL9 in the JAZ3-SPL9/pBridge construct, expressed from the PMet25 promoter (protein, UniProt Q700W2 1-375)
chain: T1 sequence
- binding [4]: binds

B5: JAZ10 in pGADT7 (protein, UniProt Q93ZM9 1-197)
chain: MSKATIELDFLGLEKKQTNNAPKPKFQKFLDRRRSFRDIQGAISKIDPEIIKSLLASTGNNSDSSAKSRSVPSTPREDQPQIPISPVHASLARSSTELVSGTVPMTIFYNGSVSVFQVSRNKAGEIMKVANEAASKKDESSMETDLSVILPTTLRPKLFGQNLEGDLPIARRKSLQRFLEKRKERLVSTSPYYPTSA
- binding [1]: binds
- binding [3]: no binding

Continued, values first:

- binding [1]: binds
- binding [3]: no binding
B2: JAZ11 in pGADT7 (protein, UniProt Q9M246 1-238)
chain: MAEVNGDFPVPSFADGTGSVSAGLDLLVERSIHEARSTEPDASTQLTIIFGGSCRVFNGVPAQKVQEIIRIAFAGKQTKNVTGINPALNRALSFSTVADLPIARRRSLQRFLEKRRDRSTKPDGSMILPSQLTIIFGGSFSVFDGIPAEKVQEILHIAAAAKATETINLTSINPALKRAISFSNASTVACVSTADVPIARRRSLQRFFEKRRHRFVHTKPYSATTSEADKNETSPIVT

- binding [4]: binds
- binding [1]: no binding
B6: CORONATINE …1 (COI1) fused to GAL4 activation domain (protein, UniProt O04197 1-592)
chain: MEDPDIKRCKLSCVATVDDVIEQVMTYITDPKDRDSASLVCRRWFKIDSETREHVTMALCYTATPDRLSRRFPNLRSLKLKGKPRAAMFNLIPENWGGYVTPWVTEISNNLRQLKSVHFRRMIVSDLDLDRLAKARADDLETLKLDKCSGFTTDGLLSIVTHCRKIKTLLMEESSFSEKDGKWLHELAQHNTSLEVLNFYMTEFAKISPKDLETIARNCRSLVSVKVGDFEILELVGFFKAAANLEEFCGGSLNEDIGMPEKYMNLVFPRKLCRLGLSYMGPNEMPILFPFAAQIRKLDLLYALLETEDHCTLIQKCPNLEVLETRNVIGDRGLEVLAQYCKQLKRLRIERGADEQGMEDEEGLVSQRGLIALAQGCQELEYMAVYVSDITNESLESIGTYLKNLCDFRLVLLDREERITDLPLDNGVRSLLIGCKKLRRFAFYLRQGGLTDLGLSYIGQYSPNVRWMLLGYVGESDEGLMEFSRGCPNLQKLEMRGCCFSERAIAAAVTKLPSLRYLWVQGYRASMTGQDLMQMARPYWNIELIPSRRVPEVNQQGEIREMEHPAHILAYYSLAGQRTDCPTTVRVLKEPI

- binding [2]: binds
- binding [3]: no binding
B7: JAZ9 in pGADT7 (protein, UniProt Q8W4J8 1-267)
chain: MERDFLGLSDKQYLSNNVKHEVNDDAVEERGLSTKAAREWGKSKVFATSSFMPSSDFQEAKAFPGAYQWGSVSAANVFRRCQFGGAFQNATPLLLGGSVPLPTHPSLVPRVASSGSSPQLTIFYGGTISVFNDISPDKAQAIMLCAGNGLKGETGDSKPVREAERMYGKQIHNTAATSSSSATHTDNFSRCRDTPVAATNAMSMIESFNAAPRNMIPSVPQARKASLARFLEKRKERLMSAMPYKKMLLDLSTGESSGMNYSSTSPT
